ChEMBL document CHEMBL4888484, “Replenishing the malaria drug discovery pipeline: Screening and hit evaluation of the MMV Hit Generation Library 1 (HGL1) against asexual blood stage Plasmodium falciparum ,using a nano luciferase reporter read-out” (2022)
Screen size: about 150,000 compounds; about 540 (0.36%) showed an effect of 50% or more. This is one part of the list.

test system: Plasmodium falciparum; test: Primary screen in NF54 nanoGlo assay, in single point, at 2uM, 72h; a lower Z score goes with more inhibition; assay type: functional, Erythrocyte; conditions: timepoint 72 hour

SMILES	% Inhibition [%]	Z score
O=C(N[C@H]1CCCN(Cc2nc3c(s2)CCCC3)CC1)c1ccncc1	-6	1.27
COc1cccc2c(=O)c3c([nH]c12)CCN(CC(=O)NCc1ccccc1Cl)C3	33	-4.27
COc1ccnc(Cn2ncc(N(C)C)cc2=O)c1	-9	1
Nc1[nH]nc(C(=O)N[C@H]2CCOC3(CCOCC3)C2)c1-c1ccccc1	-8	1.47
CC[C@@H](C1=CCCN(Cc2ccccc2C#N)C1)N(C)C(C)=O	4	-0.52
c1ccc2c(c1)OCc1cnc(N3CCC4(CC3)OCCO4)nc1-2	4	-0.77
N#Cc1ccc(Cn2ccc(=O)c3sccc32)c(F)c1	-9	1.14
COc1ccc2[nH]c(CN3CCN(Cc4cccc(C)n4)[C@@H](CCO)C3)c(C)c2c1	9	-1.33
C/C(=C\c1nsc(Nc2ccccc2)n1)NCc1ccc(Cl)cc1	-6	0.85
CCC(C)C(NC(=O)COc1ccc(Cl)cc1)c1nc(-c2ccc3c(c2)OCO3)no1 (stereo not given)	-1	0.15
Cc1cc(NC(=O)[C@@H]2C[C@@H]3OCC[C@@H]3N2)nn1CCCOc1ccc(F)cc1	-2	0.29
CC[C@H](C)N(CCC(=O)Nc1nnc(-c2cccc(OC)c2)s1)C(=O)c1cc(C(F)(F)F)cc(C(F)(F)F)c1	-9	1.02
CC(C)N(Cc1ccccc1)C(=O)C1=CCN(S(=O)(=O)c2ccccc2)CC1	1	-0.11
COc1ccccc1C(=O)n1nc(NCc2cccc3ccccc23)nc1NCc1cccc2ccccc12	-5	0.76
O=C(COc1ccccc1)N1CCC[C@H](CN2CCOCC2)CC1	3	-0.4
O=C(NCc1cc(F)ccc1C(F)(F)F)[C@@H]1CCCN1C1CCNCC1	-8	1.66
CC(C(=O)N1CCc2ccccc21)N1CCOC(Cn2cccn2)C1 (stereo not given)	-11	1.83
Cc1cnn(-c2cccc(N3CCC[C@H](O)CC3)n2)c1	0	-0.01
Cc1oc(-c2cccc(F)c2F)nc1CN1CCC[C@H]1c1nc2cc(F)ccc2[nH]1	11	-1.49
CCCCN1CCN([C@@H](C(=O)N2CCCNCC2)c2ccccc2)C(=O)C1=O	1	-0.18
CCN1C(=O)[C@]2(CC(=O)Nc3c2cnn3C(C)(C)C)c2cccc(C)c21	25	-2.83
Cc1nsc(C(=O)NCc2ccccn2)n1	-15	2.37

SMILES	% Inhibition [%]	Z score
O=C(Nc1ccc(S(=O)(=O)NCc2cccnc2)cc1)N1CCCC1	-13	2.65
COCCN(C(=O)CCCN1C(=O)c2ccccc2C1=O)c1ccc(C(F)(F)F)cn1	7	-0.91
CCc1ccc(C(=O)NCc2nc(C)cs2)s1	-4	0.58
O=C(NCC1(CCO)CC1)c1ccc(Oc2cccc(Cl)c2Cl)nc1	-8	0.98
Cc1nncn1CCN(C)Cc1ccccc1Cl	-2	0.3
O=C([C@H]1CC(=O)N(c2ccc(F)cc2)C1)N1CC(CF)C1	-25	2.87
COc1nccc(NC(=O)N2CCC(O)(Cc3ccccc3OC)CC2)n1	-28	3.26
COCCNC(=O)C1Cc2cc(C(F)(F)F)ccc2N2CCN(CC(=O)N3CCOCC3)CC12 (stereo not given)	-5	0.86
CCc1nc(C)c(C(=O)NCc2nccn2C(C)C)o1	-5	0.83
Cc1ccc(C(=O)N2CC(N3C(=O)CNC3=O)C2)c(C)c1	-6	1.12
CCc1cc(N2CCC(NC[C@@]3(C)CCCO3)CC2)nc(N(C)C)n1	-11	1.74
OC[C@@]1(CCc2ccccc2)CCCN(c2ccc3ccccc3n2)C1	-5	0.79
COc1cc(OC)nc(N(C)Cc2cn(C)nc2C)n1	5	-0.59
CCN(C(=O)Nc1ccc(C2CCCCC2)cc1)[C@H]1CCS(=O)(=O)C1	-19	1.93
CCCN(CC(=O)N(C)C)Cn1nc(C(C)(C)C)oc1=S	-6	0.77
O=C1CC[C@@H](C(=O)Nc2cccc(S(=O)(=O)N3CCOCC3)c2)N1	-6	0.88
Cc1noc(C)c1C[C@H](C)Nc1ccnc(C(C)C)n1	-15	1.89
CC1CN(CC(=O)NC2CCCC2)C(C)CO1 (stereo not given)	-2	0.19
Cc1oncc1-c1csc(-c2ccsc2)n1	-10	1.03
C[C@H](NCc1cncnc1)c1cc2ccccc2o1	-14	2.03
CCCc1nnc2n1CC1CCC(C2)N1C(=O)CCc1ccccc1 (stereo not given)	-11	1.43
COC[C@@H](O)CCNC(=O)NC1CCC(C)(C)CC1	-9	0.96

SMILES	% Inhibition [%]	Z score
CNC(=O)C1(N2CCC[C@H]2C(=O)NCCN2CCOCC2)CCCCC1	13	-1.54
CC1CCCCC12NCCN=C2NCc1ccc(F)cc1 (stereo not given)	0	-0.05
COc1ccc(-c2nc3ccc(C(=O)NCc4ccc5c(c4)OCO5)cc3nc2-c2ccc(OC)cc2)cc1	-5	0.69
CCOC(=O)c1cc(NC(=O)NCCS(C)(=O)=O)c(F)cc1C	37	-5.37
CC(=O)c1ccc(S(=O)(=O)Nc2cc(C(=O)O)ccc2N(C)Cc2ccccc2)cc1	-14	1.38
Cc1noc(NC(=O)COc2ccc(Cl)cc2)n1	-7	0.96
Cc1ccc(C(=O)N[C@H](CO)CN2CCCCC2)n1C	-14	2.23
OCCN1CCC2(CC1)OCc1ccccc12	3	-0.55
CCOC(=O)C[C@H](N)c1cc(C(F)(F)F)ccc1Cl	-1	0.14
Cc1ccc(S(=O)(=O)CC(C)NC2CCC23CCCC3)cc1 (stereo not given)	-10	1.81
O=C(NCc1c(Cl)cccc1-n1ccnc1)C1CCOCC1	-7	0.94
C[C@H](C(N)=O)N(C)Cc1ccc(C#N)cc1Br	3	-0.26
Cc1cccc2cc(C(=O)N(CCC(=O)O)CC3CC3)oc12	-12	1.84
COC[C@H](C)NC(=O)c1cncn1-c1ccc(-c2cc(C(F)(F)F)cc(C(F)(F)F)c2)cc1	-10	1.73
CC(C)(C)CN1C[C@@H](NC(=O)Cc2cccnc2)CC1=O	-12	2.08
Cc1noc(Cn2c(Cl)cccc2=O)n1	3	-0.36
COCc1nc(C(=O)Nc2nc(C)nn2C)cs1	-12	1.59
Cc1ccc(-c2cc3c(N4CCC5(CC4)OCCO5)nccn3n2)c(C)c1	27	-3.7
c1cc(-c2ccc(-c3cnc4nncn4c3)cc2)[nH]n1	-1	0.2
O=C(Nc1ccnn1Cc1c(Cl)cccc1Cl)c1ccccn1	1	-0.19
CCc1ccccc1NC(=O)C1CCN(S(=O)(=O)c2ccc3c(c2)CCCN3C(=O)C2CCC2)CC1	-19	3.59
COc1ccc(-c2ccc3c(c2)C(=O)N2CCN(C(=O)[C@@H](O)c4ccccc4)C[C@@H]2C(=O)N3)cc1	-10	1.61

SMILES	% Inhibition [%]	Z score
C[C@H](NC(=O)c1ccc(N2CCCCS2(=O)=O)cc1Cl)c1nc2ccccc2n1C	2	-0.21
CN1C(=O)CN(c2cccc(C#N)n2)CC1=O	-30	3.51
CC1CC(C(=O)N2CCC(O)(Cc3ccccn3)CC2)CC(C)(C)C1 (stereo not given)	-15	1.92
COc1ccc(Cl)cc1-c1cc(C(=O)N2CCOCC2)ccn1	3	-0.54
COCc1nc(Cn2cnc3c(c2=O)CCC3)cs1	4	-0.6
Cc1csc(CNc2nc(C)nn2C)n1	-3	0.39
CCc1cnc(NCCCN2CCOCC2)nc1	-9	1.73
Cc1cc(F)ccc1-n1cc(C(=O)NC2(C(N)=O)CCCCC2)nn1	-6	1.22
Cc1ccc([C@H]2c3ccccc3CCN2C(=O)Nc2ccc(F)cc2F)cc1	-9	1.41
NC(=O)c1c[nH]c(-c2noc([C@@H]3CCCCO3)n2)c1	-11	1.19
CN([C@@]1(C#N)CCOC1)S(=O)(=O)c1ccccc1Cl	-14	1.22
Cn1nccc1S(=O)(=O)N1CCN(C2CC2)c2ccc(F)cc21	6	-0.75
CCc1nc(CNC(=O)c2c(Cl)cnn2C)cs1	0	-0.03
CC[C@H](Nc1ccc(OC)cc1)C(=O)O	-7	1.1
O=C1N(CCCc2ccccc2)CCC[C@@]1(O)CNC1CCCC1	-9	1.12
Cc1cnc(-n2ncc(C(=O)N3CC[C@H](N(C)C)C3)c2-c2cccs2)nc1-c1ccc(F)cc1	-15	2.35
COc1ncncc1NC(=O)N1CC(=O)NC(=O)C12CCCCC2	-9	1.14
Cc1ccc(S(=O)(=O)Nc2ccc(-c3n[nH]c(CNC(=O)OC(C)(C)C)n3)cc2)cc1	-9	1
CCc1c(C)nc(N)nc1NCCOCc1ccccc1	-5	0.66
